{"source": "paper PMC10726135", "note": "The list shows a part of the results. At the low end of the ranking the order means little. The protein was read in a cell extract, so binding may be indirect."}
{"biological_target": "T1, HNF4alpha2 (COS-7 nuclear extract) (UniProt P41235)", "T1 sequence": "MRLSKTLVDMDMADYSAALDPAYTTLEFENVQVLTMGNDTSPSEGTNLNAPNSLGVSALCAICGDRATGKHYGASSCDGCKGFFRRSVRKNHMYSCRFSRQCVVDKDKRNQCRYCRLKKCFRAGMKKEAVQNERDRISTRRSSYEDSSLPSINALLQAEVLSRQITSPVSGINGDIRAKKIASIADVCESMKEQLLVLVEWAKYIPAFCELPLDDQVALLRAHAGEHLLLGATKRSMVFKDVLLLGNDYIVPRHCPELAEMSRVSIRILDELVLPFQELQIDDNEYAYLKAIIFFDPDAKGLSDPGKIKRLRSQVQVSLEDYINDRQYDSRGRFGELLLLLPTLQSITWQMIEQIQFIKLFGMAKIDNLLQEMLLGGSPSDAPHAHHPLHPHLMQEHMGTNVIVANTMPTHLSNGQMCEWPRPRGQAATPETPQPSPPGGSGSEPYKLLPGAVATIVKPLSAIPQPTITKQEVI", "assay": "protein-binding microarray", "conditions": "COS-7 nuclear extract on double-stranded Agilent 4x180k PBM; binding buffer, salt, pH and temperature not given; high values mean tight binding; double strand, one strand shown; sequences stand for … in …GCCTAGGGAGATTAGAGTATCGGTCGA"}
{"sequence": "GGGGGCCAGTTCACTCAGTCCACATGGTGT", "binding signal (log2 normalized intensity)": 0.451}
{"sequence": "CATTCCCCAGGCAATCTTCCAGTCCACAGT", "binding signal (log2 normalized intensity)": 1.39}
{"sequence": "GAGGGTTCTCACTCCTCTATCAGTACAAAT", "binding signal (log2 normalized intensity)": 0.701}
{"sequence": "CCCCTCGGCCGCTCCCTCCCCTCCTCCCTT", "binding signal (log2 normalized intensity)": 5.35}
{"sequence": "TCTTGGAAACATTTTACTCACCCCTTGCTG", "binding signal (log2 normalized intensity)": 2.06}
{"sequence": "CATTGCTGACCTTGCCTCTGTGCTCCCAGT", "binding signal (log2 normalized intensity)": -0.0996}
{"sequence": "GAATTTTGTGCAATTACACAACTTCCTTCA", "binding signal (log2 normalized intensity)": -0.938}
{"sequence": "TCTGTGTGGTAAAAGCACTGAACCCTGTTT", "binding signal (log2 normalized intensity)": 2.07}
{"sequence": "ACAAACACAGAAGTGGACCTTCACCAGATA", "binding signal (log2 normalized intensity)": 1.62}
{"sequence": "CCCAGAAGAATGGGCAGAAGTAGGATAAGG", "binding signal (log2 normalized intensity)": -1.21}
{"sequence": "TGTTCTAATGAGGCCACTCCTGATAGCTAG", "binding signal (log2 normalized intensity)": -0.544}
{"sequence": "CAGACACACAATATTATGTTTTGTTATCTG", "binding signal (log2 normalized intensity)": 0.956}
{"sequence": "GGTTGCCCTAGTGACTCTAGGAACCTTTCT", "binding signal (log2 normalized intensity)": -0.0376}
{"sequence": "AGCCCAAGGCAAAGCAGATGTGCTAACACT", "binding signal (log2 normalized intensity)": -1.17}
{"sequence": "TGGTCAATATCCACACAAACCCAGTTTGCA", "binding signal (log2 normalized intensity)": -1.06}
{"sequence": "GGATACCTAAGCCCCATGCTGATAAGGGCC", "binding signal (log2 normalized intensity)": -1.11}
{"sequence": "AGAGAAAAATCTTCAAACAACCCTTCGCTA", "binding signal (log2 normalized intensity)": -1.15}
{"sequence": "TGGCATTTGAGACTAGCCACAATAGGCCCT", "binding signal (log2 normalized intensity)": -0.945}
{"sequence": "CCAATTCACAGAACTCCCTAAGTGGCCTCA", "binding signal (log2 normalized intensity)": -0.276}
{"sequence": "AACTTTGCAGCAGATAATTACCTGGACTCT", "binding signal (log2 normalized intensity)": 3.6}
{"sequence": "AAGAGTTAAAAAAAAAAAAAACTATCAAAC", "binding signal (log2 normalized intensity)": -1.07}
{"sequence": "GTAGATTAAATCCTCGAAGAGTTTGAACTA", "binding signal (log2 normalized intensity)": 0.864}
{"sequence": "CCGGACATGGAGAGGTGAGACACGTGTGCC", "binding signal (log2 normalized intensity)": -0.117}
{"sequence": "TTTGATCCTGATGACTGCAGAGCTTGCTCT", "binding signal (log2 normalized intensity)": -0.687}
{"sequence": "TTATTAGTCCAAGAGATTTCTACAGATAGC", "binding signal (log2 normalized intensity)": -1.08}
{"sequence": "TACACACATTCCAATCTTCTTTTCCAGTCT", "binding signal (log2 normalized intensity)": 1.44}
{"sequence": "CTGGAATCACGTTCGCCTAATTTGAAGCAT", "binding signal (log2 normalized intensity)": -0.886}
{"sequence": "CTATCTTATCTGGGCCAGGTATTTGGACTT", "binding signal (log2 normalized intensity)": 4.29}
{"sequence": "TAGAACAAAGATCAAAGCAGTATCATCAAC", "binding signal (log2 normalized intensity)": -1.11}
{"sequence": "TTCCATAGATAAGAGCTGAGGAAGTGCTGA", "binding signal (log2 normalized intensity)": -1.12}
{"sequence": "TTCCTCCTGGCCTCTCTGAGCAGCCTTCCC", "binding signal (log2 normalized intensity)": -1.09}
{"sequence": "CCTCTGAAAGCACTTGTAGGCCTGTGTGCA", "binding signal (log2 normalized intensity)": 1.09}
{"sequence": "TTTCAGATGGACCAAAGGTCTTGTACAAAG", "binding signal (log2 normalized intensity)": 2.29}
{"sequence": "CCACCAAGGACTGGACCACCTCCTCAAAGA", "binding signal (log2 normalized intensity)": -1.06}
{"sequence": "AGCTGCTGGCAGGAATTTTAAAAGTATACT", "binding signal (log2 normalized intensity)": -1.09}
{"sequence": "AGTCCATTCCTTGGACTCTGCCACTGGTTT", "binding signal (log2 normalized intensity)": 2.87}
{"sequence": "AGGAGGAGACAGACTTATCGGGTAGGCAAG", "binding signal (log2 normalized intensity)": -0.985}
{"sequence": "CAAGGTCCAGGAGGTCGCTGGAAAGGCGGC", "binding signal (log2 normalized intensity)": -0.494}
{"sequence": "CTGCTTTTGGAATTTGACCTCATTTGCTCC", "binding signal (log2 normalized intensity)": 5.7}
{"sequence": "AGCTTTGATAGTCTGCTACCATCAGATAAG", "binding signal (log2 normalized intensity)": -1.13}
{"sequence": "CTGAGCCAGCACTTCGACCTCACATTGTAG", "binding signal (log2 normalized intensity)": 1.68}
{"sequence": "TCATTACTGACAGAGATCAAAAACCAAAGC", "binding signal (log2 normalized intensity)": -1.13}
{"sequence": "CTTTAGCATATTACACCTGTAGCTTCCGAA", "binding signal (log2 normalized intensity)": -1.08}
{"sequence": "TTTGCCTCATTCTTATTGCCTCATGTTTGC", "binding signal (log2 normalized intensity)": 1.97}
{"sequence": "TGTCCGTTCCTGCCTGGAGCCACTGAAGTG", "binding signal (log2 normalized intensity)": -1.14}
{"sequence": "TGCTCCCTGCCCCTACCCCCACCCTGTGTT", "binding signal (log2 normalized intensity)": 5.67}
{"sequence": "CAAAGGGCATCAGCCCCAATGGCTAAGGTC", "binding signal (log2 normalized intensity)": 1.47}
{"sequence": "TCCAGAGATGCCAGGAGAGCCGAAGCAGTC", "binding signal (log2 normalized intensity)": -0.989}
{"sequence": "CCCAGGGAGAAAGGTCAGGGGCAGGGTCGC", "binding signal (log2 normalized intensity)": 0.841}
{"sequence": "CACCAAAAATCACTTGGATAGCGCGTGGCC", "binding signal (log2 normalized intensity)": -1.09}
{"sequence": "CAGAAAGTGACGTGCAGAGGAGCAACTCAT", "binding signal (log2 normalized intensity)": -1.27}
{"sequence": "AAATGCATTTCCTTATTCTTAACAAGCTGA", "binding signal (log2 normalized intensity)": -1.13}
{"sequence": "CTATTTCAGGAATGTGACCCCTTTCATGAA", "binding signal (log2 normalized intensity)": 3.86}
{"sequence": "TCTTACCCAACCAAAAACAAAACTGGTCAT", "binding signal (log2 normalized intensity)": 1.68}
{"sequence": "AAGGCTCTTTGTTCAGAGGGCATGTTGAGT", "binding signal (log2 normalized intensity)": 1.52}
{"sequence": "CTTTGGAGTTTACTTTAGATGTGTTTGAGT", "binding signal (log2 normalized intensity)": 1.79}
{"sequence": "GCAGGAGCCCAAGAAGCGTCAGTTGCCTCG", "binding signal (log2 normalized intensity)": -1.18}
{"sequence": "TTTTATTTTCCCCCTTTGAAGTCTGCCCTC", "binding signal (log2 normalized intensity)": 4.45}
{"sequence": "CCAGGGGACGTGGAATAGATCAGCTTTCAA", "binding signal (log2 normalized intensity)": -1.07}
{"sequence": "GCTCAAGTCTTTTAGAATGTGGATGGGCTG", "binding signal (log2 normalized intensity)": 1.35}
{"sequence": "TTTCTGAGGAGCTAACAGTAAAACTGAGAT", "binding signal (log2 normalized intensity)": -1.03}
{"sequence": "AAGAAACATTTTACAACCTATTCTCTCTGA", "binding signal (log2 normalized intensity)": -1.1}
{"sequence": "TTTGACCTTAAGTCAGAAGAACTGATTCCA", "binding signal (log2 normalized intensity)": 1.19}
{"sequence": "GCCTTGCAGGTTCTCAGAAACGCCTGGCGC", "binding signal (log2 normalized intensity)": -1.06}
{"sequence": "TGAACCAATGCCACAGAAAAGGCAGCAGCT", "binding signal (log2 normalized intensity)": -1.13}
{"sequence": "AAGGAATGTAATGTATGCATAGACTGCCCA", "binding signal (log2 normalized intensity)": 0.907}
{"sequence": "CTCTGAAGTTTAATCCTCTCACCCAAGATC", "binding signal (log2 normalized intensity)": 2.17}
{"sequence": "CCTTTCCCTTATCTTTGTTATCTGTTGGTT", "binding signal (log2 normalized intensity)": 2.62}
{"sequence": "CCCCTGCAATACAGCCTTGTTTACAACGCT", "binding signal (log2 normalized intensity)": -1.18}
{"sequence": "AGCGGGGCCTCTGTGTGGGGCTGATAAGGC", "binding signal (log2 normalized intensity)": -1.05}
{"sequence": "GACTGCAGAGATTGGAATCTCTGCACAGCA", "binding signal (log2 normalized intensity)": -1.14}
{"sequence": "GACTCTGAGCCTCCTCCCTCTCTCTCTTAA", "binding signal (log2 normalized intensity)": -1.18}
{"sequence": "ATGAGTCTTGGGAATGAATCAGAATTTGGA", "binding signal (log2 normalized intensity)": 1.14}
